Measurements from PubChem BioAssay (NCATS).
Values joined by “and” are separate entries in the source; they are usually repeats but may differ in a detail not shown here. Identical values can stand only once. Some of the results follow. The main result of the screen is listed elsewhere. These columns were measured beside it and carry no call. Compounds called inactive in the main read-out are mostly missing here.

assay: qHTS Assay for Lipid Storage Modulators (AID 1519); conditions: Drosophila S3 cells, BODIPY lipid droplet/cell ratio, laser cytometry; measured here: cell count channel max response; cells loaded with oleic acid
Procedure, shortened: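 Cells seeded at 5,000 per well were treated with compounds over a concentration series and loaded with oleic acid (400 uM, as added). Lipid droplet fluorescence (488 nm excitation, 500-530 nm channel) was read by laser-scanning cytometry and normalized to 20 uM Triacsin C.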

| SMILES | max response |
| --- | --- |
| C[C@@H](C(=O)O)c1ccc(-c2ccccc2)c(F)c1 | 32.2% |
| CN(C(=O)Cc1ccc(Cl)c(Cl)c1)[C@H](CN1CCCC1)c1cccc(N=C=S)c1 | 91.2% |
| COc1cc2c(cc1OC)[C@@H]1C(=O)c3ccc4c(c3OC1CO2)CC(C(C)C)O4 (stereo partly specified) | -31.9% |
| CN(C)C(=O)Oc1cccc([N+](C)(C)C)c1 | 9.93% |
| Ic1cncc(OC[C@@H]2CCN2)c1 | 66.4% |
| NC(=O)CN1CCCC1=O | 22% |
| COc1ccc(NC(=O)N2CCCC3(CCN(C(=O)Oc4ccccc4)CC3)C2)cc1 | 15.6% |
| C=CCN1C[C@H](C)N([C@H](c2ccc(C(=O)N(CC)CC)cc2)c2cccc(O)c2)C[C@H]1C | 77.1% |
| C[C@@H]1O[C@H](C[N+](C)(C)C)CS1 | 49.1% |
| CC(=O)N1CCN(c2ccc(OC[C@@H]3CO[C@@](Cn4ccnc4)(c4ccc(Cl)cc4Cl)O3)cc2)CC1 | -35.5% |
| COC(=O)/C(C)=C\CC12OC(C)(C)C3CC(C=C4C(=O)c5c(OC)c6c(c(CC=C(C)C)c5OC431)OC(C)(CCC=C(C)C)C=C6)C2=O (stereo unspecified) | -48.2% |
| C=C1CCC(O)C/C1=C\C=C1/CCCC2(C)C1CCC2C(C)CCCC(C)C (stereo unspecified) | 82.4% |
| COc1ccc2c3c([nH]c2c1)C(C)=NCC3 | 8.85% and 113% |
| Clc1ccc(COC(Cn2ccnc2)c2ccc(Cl)cc2Cl)c(Cl)c1 (stereo unspecified) | -35.8% |
| NCCCP(=O)(O)CC1CCCCC1 | 41.3% |
| CC1CC[C@@]2(OC1)O[C@@H]1[C@@H](O)[C@H]3C4CC[C@H]5C[C@@H](O[C@@H]6O[C@H](CO)[C@H](O[C@@H]7O[C@H](CO)[C@@H](O)[C@H](O[C@@H]8OC[C@@H](O)[C@H](O)[C@H]8O)[C@H]7O[C@@H]7O[C@H](CO)[C@@H](O)[C@H](O[C@@H]8O[C@H](CO)[C@@H](O)[C@H](O)[C@H]8O)[C@H]7O)[C@H](O)[C@H]6O)[C@H](O)C[C@]5(C)C4CC[C@]3(C)[C@H]1[C@@H]2C (stereo partly specified) | 69.4% |
